Reference: PubChem BioAssay AID686979 (National Center for Advancing Translational Sciences (NCATS), 2013)
About 50,000 (12%) of roughly 420,000 compounds were called active. Inconclusive means that the source gave no clear call. Such entries were picked first, then a sample of the others. Calls follow the shape of the dose curve; as a rule, active = well fitted inhibition curve with a large enough effect; inconclusive = small, poorly fitted or top-dose-only effect; inactive = flat fitted curve, though single readings scatter. No potency is given beside an inconclusive call; the fits are too rough.

Experiment: qHTS for Inhibitors of human tyrosyl-DNA phosphodiesterase 1 (TDP1): qHTS in cells in presence of CPT; also: nearly all actives have a fitted effect of over 55% in size
Conditions: chicken DT40 Tdp1-/-;hTDP1 cells + 20 nM CPT, ATP luminescence, 48 h; activity change, negative = growth inhibition: at 46.2 µM (top of the series) unless noted
Procedure, shortened: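 Chicken DT40 Tdp1-/- cells complemented with human TDP1, 400 cells/well, exposed to compounds plus 20 nM camptothecin for at least 48 h at 37 C; viability read as ATP content by CellTiter-Glo luminescence.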
% is scaled to controls: 0 for no effect and ±100 for the full control effect; potency is read from the fitted curve at half-maximal effect; tags tell the direction and shape of the fitted curve.

Compound | Potency | activity change, negative = growth inhibition
Cc1sc2nc(C(C)Nc3ccccc3N3CCOCC3)[nH]c(=O)c2c1C (stereo unspecified) | inconclusive [inhibitor, single point] | –
COc1ccc(C2=Nc3ccccc3N(C(=O)c3ccc4ncccc4c3)C2C(=O)NC2CCCC2)cc1 (stereo unspecified) | active: 8.2 µM | –
COc1ccc(C)cc1S(=O)(=O)N(CC(=O)NCc1ccc(Cl)cc1)Cc1ccccc1 | active: 20.6 µM | –
NS(=O)(=O)c1ccc(NC(=O)COC(=O)c2ccc(Cl)nc2)cc1 | – | inactive: -8.23%
CCOC(=O)C1CCC(CN(Cc2c(Cl)cccc2Cl)S(=O)(=O)c2ccc(F)c(C)c2)CC1 (stereo unspecified) | inconclusive [inhibitor, single point] | –
O=C1NC[C@H](Cc2ccc(O)cc2)N(C[C@@H]2CCCN2C[C@H](Cc2ccccc2)N2C[C@H](Cc3ccc(O)cc3)N(CC3CCCCC3)C(=O)C2=O)C1=O | inconclusive [inhibitor, single point] | –
COc1ccccc1N(C)S(=O)(=O)c1ccc(Cl)c(C(=O)NNC(=O)c2ccccc2O)c1 | inconclusive [inhibitor, single point] | –
Cc1ccc(S(=O)(=O)N(CC(=O)NC2CC3CCC2C3)c2ccccc2)cc1 (stereo unspecified) | inconclusive [inhibitor, single point] | –
C[C@@H]1CN([C@@H](C)CO)C(=O)c2cc(C#CC3CCCCC3)cnc2O[C@@H]1CN(C)S(=O)(=O)c1ccc(F)cc1 | active: 16.4 µM | –
CC(=O)Nc1ccc(NC(=O)CSc2nnc(-c3cccs3)n2C)cc1 | – | inactive: 8.63%
COc1ccc(CN(C(=O)COc2ccc(C)c(C)c2)C2CCS(=O)(=O)C2)cc1OC (stereo unspecified) | inconclusive [inhibitor, single point] | –
COc1cc(/C=N/Nc2nc3ccccc3s2)ccc1O | active: 1.46 µM | –
Cc1cccc(C)c1Cn1c(C)c(C(=O)NCc2ccccc2C(F)(F)F)sc1=O | inconclusive [inhibitor, single point] | –
CCOc1ccc(C(=O)N2CCN(Cc3cc(=O)n4nc(-c5cccc(OC)c5)sc4n3)CC2)cc1 | inconclusive [inhibitor, single point] | –
Cc1nn(C)c(C(=O)NC(=S)Nc2ccc([N+](=O)[O-])cc2)c1Cl | inconclusive [inhibitor, single point] | –
Clc1ccccc1CN(Cc1ccco1)Cc1nnnn1C1CCCC1 | inconclusive [inhibitor, single point] | –
Clc1ccc2c(c1)C(C1=NCCN1)c1ccccc1CS2 (stereo unspecified) | active: 6.51 µM | –
Cc1cccc(NC(=O)c2ccc(F)c(S(=O)(=O)N(C)C3CCCCC3)c2)c1 | inconclusive [inhibitor, single point] | –
COc1ccc(-c2cc(-c3ccc(OC)c(OC)c3)n[nH]2)c(O)c1 | active: 25.9 µM | –
COc1ccc(C(=O)Nn2c(C3CCC3)nc3ccccc3c2=O)c(OC)c1 | inconclusive [inhibitor, single point] | –
Brc1ccc2nc(-c3ccccc3)c(Cc3ccccc3)n2c1 | inconclusive [inhibitor, single point] | –
COc1ccc(C2C(C(=O)N3CCC(C(N)=O)CC3)CC(=O)N2c2ccc(OC)cc2)cc1 (stereo unspecified) | – | inactive: -0.578%
C=CCn1c(SCC(=O)N2CCN(C(=O)OCC)CC2)nc2c([nH]c3ccccc32)c1=O | inconclusive [inhibitor, single point] | –
COc1cc(-c2nnc3sc(-c4cccs4)nn23)cc(OC)c1OC | inconclusive [inhibitor, partial curve] | –

Compound | Potency | activity change, negative = growth inhibition
COc1ccc(O)c(-c2nc(N)nc(N)n2)c1 | active: 16.4 µM | –
CCOCCCNC(=O)C(c1ccc(Cl)cc1)N(Cc1ccc2c(c1)OCO2)C(=O)c1ccccc1O (stereo unspecified) | inconclusive [inhibitor, single point] | –
CCCCC(=O)OCc1nc2ccccc2s1 | – | inconclusive: -1.61% [inhibitor]
Cc1ccc(C)c(OCCCn2c(-c3ccc(Cl)cc3)nc3ccccc3c2=O)c1 | – | inactive: -9.56%
CCCC(CCC)C(N)=O | – | inactive: -0.809%
Cc1c(C)c2ccc(OCC(=O)NCCN3CCOCC3)cc2oc1=O | – | inactive: 4.77%
Cc1ccccc1Cn1cc(S(=O)(=O)c2ccc(C(C)C)cc2)c(=O)c2cc3c(cc21)OCO3 | – | inactive: -14.5%
Cc1ccc(/C=C/C2=NN(Cc3ccc(Cl)c(Cl)c3)C(=O)CC2)cc1 | – | inactive: 1.99%
Cc1ccc2nc(CSc3nnc(-c4ccco4)o3)cc(=O)n2c1 | inconclusive [inhibitor, single point] | –
CCOC(=O)c1c(C)[nH]c(C)c1S(=O)(=O)N(C)CC(=O)Nc1cccc(C)n1 | – | inactive: -0.729%
Cc1cccc(-n2ncc3c(N4CCCc5ccccc54)ncnc32)c1 | inconclusive [inhibitor, single point] | –
c1ccc(Nc2ccccc2)cc1 | – | inactive: 4.98%
CCN(Cc1nc(-c2ccc(OC)cc2)oc1C)S(=O)(=O)c1ccc(Cl)cc1 | inconclusive [inhibitor, single point] | –
CCOc1cccc(CNCCO)c1OCc1ccc(Cl)cc1Cl | active: 16.4 µM | –
CCCCN1CC(COCc2ccccc2)Oc2cccc(Oc3ccc(F)cc3)c2S1(=O)=O (stereo unspecified) | inconclusive [inhibitor, single point] | –
Cc1nc2ccccc2c(=O)n1/N=C/c1ccc(C(C)C)cc1 | inconclusive [inhibitor, single point] | –
CC(C)CCn1nnnc1C(c1ccc(F)cc1)N1CCN(C(=O)c2ccco2)CC1 (stereo unspecified) | – | inactive: -17.9%
COc1ccccc1N(C)S(=O)(=O)c1ccc(C(=O)N(C)Cc2cccc(F)c2)cc1 | active: 16.4 µM | –
CCC(C)NCCCOc1ccc(Cl)cc1C(C)(C)C (stereo unspecified) | inconclusive [inhibitor, single point] | –
COc1cccc(C(=O)Nc2cc([N+](=O)[O-])ccc2N2CCN(C)CC2)c1 | inconclusive [inhibitor, partial curve] | –
COc1ccc(N2CCN(C(=O)c3cccn4c(=O)c5ccc(Cl)cc5nc34)CC2)cc1 | – | inactive: -11.3%
COCc1ccccc1Cn1cnc2c1c(=O)n(C)c(=O)n2C | inconclusive [inhibitor, partial curve, poor fit] | –
CCOc1ccc(CCNC(=O)CS(=O)Cc2nc(-c3ccccc3C)oc2C)cc1OCC (stereo unspecified) | inconclusive [inhibitor, single point] | –
COCCNC(=O)c1sc2ncn(CC(=O)N3CCCCC3)c(=O)c2c1C | inconclusive [inhibitor, single point] | –

Compound | Potency | activity change, negative = growth inhibition
CC(=O)c1sc(Nc2ccc(Oc3ccccc3)cc2)nc1C | inconclusive [inhibitor, single point] | –
COc1ccc(Cn2nnnc2C(c2cccs2)N2CCSCC2)cc1 (stereo unspecified) | inconclusive [inhibitor, single point] | –
Cc1noc(C)c1-c1cncnc1NCc1ccccc1 | inconclusive [inhibitor, single point] | –
COc1ccccc1NS(=O)(=O)c1ccc(C)c(NC(=O)NCCCl)c1 | inconclusive [inhibitor, single point] | –
Cc1ccc2c(C(=O)CNc3nccs3)c[nH]c2c1 | – | inconclusive: -31.4% [inhibitor]
CCOC(=O)c1ccc(COc2ccc(C(C)C)cc2)o1 | – | inactive: 7.53%
Nc1cc(C(=O)O)ccc1N1CCCCC1 | – | inactive: 0.271%
CCCCC1=CC2=CC(=O)C(C)(OC(=O)CC)C(=O)C2=CN1Cc1ccco1 (stereo unspecified) | inconclusive [inhibitor, partial curve] | –
Cc1ccc(C(=O)NC(C)C(c2cccs2)N2CCOCC2)cc1C (stereo unspecified) | inconclusive [inhibitor, partial curve] | –
CCN1C(=O)c2ccccc2Sc2ccc(NC(=O)Nc3ccc(C(C)=O)cc3)cc21 | inconclusive [inhibitor, single point] | –
O=c1c2c3c(sc2nc(NCCO)n1CCc1ccccc1)CCCCC3 | active: 5.8 µM | –
O=C(NCC1CCCO1)C(c1cccs1)N(Cc1cccs1)C(=O)c1ccc(-c2ccccc2)[nH]1 (stereo unspecified) | active: 13 µM | –
FC(F)(F)c1ccc(-c2cccc3c2C2CC3CCN2)cc1 (stereo unspecified) | – | inconclusive: -35.9% [inhibitor]
O=C(c1cccs1)C1CCCN(Cc2nc(Cc3ccccc3F)no2)C1 (stereo unspecified) | – | inactive: -20.1%
CCNC(=O)C1(C)CCN(Cc2cccc(Oc3ccccc3)c2)C1 (stereo unspecified) | inconclusive [inhibitor, single point] | –
N#Cc1ccccc1OCC(=O)OCCCOC(=O)COc1ccccc1C#N | – | inactive: -0.465%
CCc1c(C(=O)NCCc2ccc(OC)c(OC)c2)[nH]c(C)c1C(C)=O | inconclusive [inhibitor, single point] | –
CCCCCC(=O)N[C@@H](c1ccccc1)[C@@H](O)C(=O)O[C@H]1C[C@@]2(O)[C@@H](OC(=O)c3ccccc3)C3[C@](C)(C(=O)[C@H](OC(C)=O)C(=C1C)C2(C)C)[C@@H](O)C[C@H]1OC[C@@]31OC(C)=O (stereo partly specified) | active: 0.116 µM | –
COc1ccc(N2CCN(S(=O)(=O)/C=C/c3ccccc3)CC2)cc1 | – | inactive: -17.9%
O=S(=O)(Nc1cccc(CCc2ccccn2)c1)c1ccc(Cl)cc1 | inconclusive [inhibitor, single point] | –
COc1cc(C)c(CN2CCc3nnc(C(C)NC(=O)c4cccnc4)n3CC2)cc1C (stereo unspecified) | – | inactive: -20.5%
COc1ccc(/C=C/c2nnc(NC(=O)C(C)(C)C)s2)cc1 | – | inactive: 0.599%
COc1ccccc1/C=C/[C@@H]1C[C@H]2CN(Cc3cccc(Cl)c3)C(=O)[C@]23CCCN13 | active: 10.3 µM | –
